Results from PubChem BioAssay AID1347165 (National Center for Advancing Translational Sciences (NCATS), 2019).
Hit rate of the full screen: of about 220,000 compounds, about 5,700 (2.6%) were called active. The shares of active, inactive and inconclusive entries below differ from those in the screen. Calls come from the whole dose curve; as a rule, active = well fitted inhibition curve with a large enough effect; inconclusive = small, poorly fitted or top-dose-only effect; inactive = no such curve, though single readings can be large or run the other way. Potencies beside an inconclusive call are fits to weak or partial responses and may not hold up.

The compounds below were run against Lysine-specific demethylase 5B (Homo sapiens) (UniProt Q9UGL1) (assay: Primary screen for KDM5B Histone Demethylases FDH-coupled qHTS). Details: FDH-coupled NADH fluorescence (FDH is formaldehyde dehydrogenase); activity change, negative = inhibition: at 57.7 µM (top of the series) unless noted.
UniProt Q9UGL1, sequence (Q9UGL1 whole entry, looked up): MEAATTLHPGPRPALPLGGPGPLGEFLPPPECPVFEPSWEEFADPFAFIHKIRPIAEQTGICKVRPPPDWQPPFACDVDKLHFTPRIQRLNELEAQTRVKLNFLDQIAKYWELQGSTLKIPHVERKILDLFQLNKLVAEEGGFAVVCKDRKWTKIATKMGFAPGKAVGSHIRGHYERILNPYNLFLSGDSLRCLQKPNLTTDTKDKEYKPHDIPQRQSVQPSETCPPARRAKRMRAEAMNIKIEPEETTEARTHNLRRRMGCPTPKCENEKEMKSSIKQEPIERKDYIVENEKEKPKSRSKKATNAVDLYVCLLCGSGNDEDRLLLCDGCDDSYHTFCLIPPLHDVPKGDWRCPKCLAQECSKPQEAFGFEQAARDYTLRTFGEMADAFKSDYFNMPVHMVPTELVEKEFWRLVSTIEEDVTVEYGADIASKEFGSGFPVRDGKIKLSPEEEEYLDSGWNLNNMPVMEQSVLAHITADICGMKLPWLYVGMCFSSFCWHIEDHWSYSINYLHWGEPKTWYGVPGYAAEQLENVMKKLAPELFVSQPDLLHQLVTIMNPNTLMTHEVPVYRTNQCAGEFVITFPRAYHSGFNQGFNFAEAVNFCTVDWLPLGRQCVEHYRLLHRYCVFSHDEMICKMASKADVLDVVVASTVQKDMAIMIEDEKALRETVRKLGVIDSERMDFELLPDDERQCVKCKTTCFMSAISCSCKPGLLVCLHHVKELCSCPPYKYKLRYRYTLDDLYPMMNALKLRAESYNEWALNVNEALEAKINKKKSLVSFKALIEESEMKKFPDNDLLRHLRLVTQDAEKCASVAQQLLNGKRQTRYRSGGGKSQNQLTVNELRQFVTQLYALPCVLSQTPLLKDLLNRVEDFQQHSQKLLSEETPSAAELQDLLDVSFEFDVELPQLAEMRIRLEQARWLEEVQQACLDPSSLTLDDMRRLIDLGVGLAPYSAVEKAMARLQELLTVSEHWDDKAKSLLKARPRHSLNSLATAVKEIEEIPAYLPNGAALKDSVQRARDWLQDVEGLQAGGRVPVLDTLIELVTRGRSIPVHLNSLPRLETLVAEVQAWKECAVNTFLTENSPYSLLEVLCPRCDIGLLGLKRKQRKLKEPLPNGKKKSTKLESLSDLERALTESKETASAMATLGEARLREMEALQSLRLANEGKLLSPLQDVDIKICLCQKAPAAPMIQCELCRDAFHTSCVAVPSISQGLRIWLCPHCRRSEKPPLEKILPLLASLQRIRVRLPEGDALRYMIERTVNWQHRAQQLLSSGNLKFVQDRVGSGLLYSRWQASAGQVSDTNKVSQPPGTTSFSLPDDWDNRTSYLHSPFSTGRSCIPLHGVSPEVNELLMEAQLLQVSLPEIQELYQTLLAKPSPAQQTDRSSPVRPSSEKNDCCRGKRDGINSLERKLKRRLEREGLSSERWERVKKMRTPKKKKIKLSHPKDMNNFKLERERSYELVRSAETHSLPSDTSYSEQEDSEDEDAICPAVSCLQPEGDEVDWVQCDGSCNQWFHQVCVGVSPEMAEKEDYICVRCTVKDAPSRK
In short: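 Here, H3K4me3 peptide (12.5 µM in substrate mix) is demethylated by KDM5BΔAP, 200 nM final, after 10 min compound exposure. Formaldehyde product is coupled through FDH (0.25 U/mL in mix) to NADH fluorescence; 30-min ΔRFU feeds dose-response curves.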
Note: nearly all actives have a fitted effect of over 70% in size.
Potency is the fitted concentration of half-maximal effect; tags give direction and shape of the fitted curve.
Throughout, for activity change, negative = inhibition: 0% is about no effect.

Row | Compound | Potency | activity change, negative = inhibition
1 | O=C1c2cc(N3CCOCC3)nc(-c3ccccc3F)c2CN1CC(F)(F)F | active: 31.6 µM | 
2 | Cc1ccc(C(C(=O)NCC2CCCO2)N(C(=O)c2snc(C(N)=O)c2N)c2ccc(C)c(C)c2)o1 (stereo not given) | inconclusive: 22.4 µM [inhibitor, partial curve, poor fit] | 
3 | COc1ccc(-c2cnc3n[nH]c(-c4sccc4C)c3n2)cc1 | inactive | 
4 | COc1cccc(C2Cn3nnc(-c4nc(-c5ccc(Cl)cc5)no4)c3CO2)c1 (stereo not given) | inactive | 
5 | CC1(CNc2ccccc2)COc2ccc(C(=O)N3CC[S+](=O)([O-])CC3)cc2N1 (stereo not given) | inconclusive: 56.2 µM [inhibitor, partial curve, poor fit] | 
6 | CCc1ccc(NC(=O)Cn2nnc(C(=O)Nc3cc(C)ccc3OC)c2N)cc1 | inconclusive: 17.8 µM [inhibitor, partial curve, poor fit] | 
7 | O=C(NC1CCC1)c1ccc2nccn2c1 | inconclusive: 35.5 µM [inhibitor, partial curve, poor fit] | 
8 | COc1cccn(CC(=O)N(C)Cc2c(C)noc2C)c1=O | inconclusive: 22.4 µM [inhibitor, partial curve, poor fit] | 
9 | O=C(O)COc1ccccc1CN1CC[C@H]2NCCC[C@]2(C(=O)O)C1 | inconclusive: 12.6 µM [inhibitor, partial curve, poor fit] | 
10 | C[C@@H](O)CNc1nccc(C2(c3ccccc3Cl)CCNCC2)n1 | inconclusive: 12.6 µM [inhibitor, partial curve, poor fit] | 
11 | NCC(=O)N1CCC(n2nccc2NC(=O)c2ccc3c(c2)OCO3)CC1 | inconclusive: 11.2 µM [inhibitor, partial curve] | 
12 | O=C(CCC1N=C2c3ccccc3N=C(SCc3cccc(F)c3)N2C1=O)NCc1ccc(F)cc1 (stereo not given) | inconclusive: 3.55 µM [inhibitor, partial curve, poor fit] | 
13 | Cc1ccc(OC2(C(=O)O)CCN(C(=O)C3CCOCC3)CC2)cc1 | inactive | 
14 | CN(CC(=O)NCc1ccc2c(c1)OCO2)S(=O)(=O)c1ccc(Cl)cc1 | inconclusive: 39.8 µM [inhibitor, single point] | 
15 | Cn1cnc2cc(-c3ccc(F)cc3)cc(C(=O)NCCCn3ccnc3)c21 | active: 39.8 µM | 
16 | CCNC(=O)c1cc(NC(=O)CC)cc2nc(C)ccc12 | active: 20 µM | 
17 | COc1ccccc1CC(=O)N1CCCN(c2cc(-c3ccccc3)[nH]n2)CC1 | inconclusive: 17.8 µM [inhibitor, partial curve, poor fit] | 
18 | COc1ccc(C(=S)N2CCOCC2)cc1OC(=O)c1ccccc1 | inconclusive: 28.2 µM [inhibitor, single point] | 
19 | CCc1ccc(NC(=O)c2oc3c(c2C)-c2[nH]ncc2CC3)cc1 | inconclusive: 28.2 µM [inhibitor, partial curve, poor fit] | 
20 | CCc1ccc(NC(=O)c2ccc3c(c2)c(C)c(C)n3Cc2ccccc2)cc1 | inconclusive: 31.6 µM [inhibitor, partial curve, poor fit] | 
21 | CN(C)Cc1ccc(CNC(=O)c2nn(-c3ccc(F)cc3)c3c2CCC3)cc1 | inactive | 
22 | CC(C)(C)NC(=O)Cn1nc2n(c1=O)CCN(Cc1cccc(Cl)c1)C2=O | inactive | 

Row | Compound | Potency | activity change, negative = inhibition
23 | Cc1cc(OC(C)C(=O)NC2CC(C)(C)NC(C)(C)C2)c2c(C)cc(=O)oc2c1 (stereo not given) | inconclusive: 17.8 µM [inhibitor, partial curve, poor fit] | 
24 | O=C(NC1CC1)c1ccc(N2CC3CC(C2)[C@H]2CCCC(=O)N2C3)nc1 (stereo not given in full) | inconclusive: 31.6 µM [inhibitor, partial curve, poor fit] | 
25 | Cc1cccc(-n2ncc3c(Nc4c(C)cc(C)cc4C)ncnc32)c1 | inconclusive: 39.8 µM [inhibitor, single point] | 
26 | COC(=O)c1ccc(C)c(NC(=O)COc2ccc3c(C)cc(=O)oc3c2)c1 | inconclusive: 35.5 µM [inhibitor, partial curve, poor fit] | 
27 | Cc1noc(Cn2c(=O)c3ccccc3n(CC(=O)Nc3ccccc3C(F)(F)F)c2=O)n1 | inconclusive: 31.6 µM [inhibitor, partial curve, poor fit] | 
28 | Oc1ccc(Nc2nc(-c3ccc(Cl)cc3)nc3ccccc23)cc1 | inconclusive: 25.1 µM [inhibitor, single point] | 
29 | COc1ccccc1OCC(=O)Nc1cccc2cccnc12 | inactive | 
30 | CCOC(=O)c1cccc(Nc2cc(C)nc(C)n2)c1 | inconclusive: 22.4 µM [inhibitor, single point] | 
31 | CCc1cc2c(CN3CCN(CC)CC3)cc(=O)oc2cc1O | inconclusive: 28.2 µM [inhibitor, partial curve, poor fit] | 
32 | CN(C)c1ccc(/C=N/NC(=O)C(c2ccccc2)c2ccccc2)cc1 | inconclusive: 10 µM [inhibitor, partial curve, poor fit] | 
33 | O=C(c1ccc2ccccc2c1)N1C[C@@H]2C[C@H](C1)c1ccc(NS(=O)(=O)Cc3ccccc3)c(=O)n1C2 | inconclusive: 25.1 µM [inhibitor, single point] | 
34 | COc1cccc(-c2c(NC(=O)c3ccc([N+](=O)[O-])cc3)oc3ccccc3c2=O)c1 | inactive | 
35 | O=C(c1ccnc(-c2ccccc2-c2ccccc2)c1)N1CCCC1 | inactive | 
36 | CS(=O)(=O)c1ccc2nc(NC(=O)CSCc3ccccc3)sc2c1 | inactive | 
37 | CC(C)NC(=O)N[C@H]1C[C@H]2C(=O)NC[C@@H](CCC(=O)N3CCN(c4ccccn4)CC3)N2C1 | active: 25.1 µM | 
38 | COC[C@@H]1CN(c2cnccn2)C[C@H]1C(=O)NCCc1cccnc1 | active: 25.1 µM | 
39 | O=C(c1cccc(Cl)c1)N1CCC2(CC1)OCC(C(=O)N1CCCC1)N2C(=O)c1cccc(F)c1 (stereo not given) | inactive | 
40 | Cc1nn(C(=O)CCC(=O)N2CCc3nc4cc[nH]n4c(=O)c3C2)c2ccccc12 | inconclusive: 14.1 µM [inhibitor, partial curve, poor fit] | 
41 | CC(=O)N1CCN(C(=O)CCc2nc(Cc3ccccc3)no2)CC1 | inactive | 
42 | CS(=O)(=O)Nc1cc(-c2noc([C@@H]3CCCN3C3CCOCC3)n2)ccn1 | inconclusive: 39.8 µM [inhibitor, partial curve, poor fit] | 
43 | CNC(=O)C1(N2CCC[C@H]2C(=O)NCc2ccccn2)CCCCC1 | inconclusive: 22.4 µM [inhibitor, partial curve] | 
44 | CN(C)c1cccc(C(=O)Nc2ccc(-c3nc4ccccc4s3)cc2)c1 | inconclusive: 31.6 µM [inhibitor, partial curve, poor fit] | 

Row | Compound | Potency | activity change, negative = inhibition
45 | COc1cccc(C2Cn3nnc(-c4nc(-c5ccc(C(C)(C)C)cc5)no4)c3CO2)c1 (stereo not given) | inactive | 
46 | C#CCNC(=O)c1sc(C(C)C)nc1C | inactive | 
47 | COCC1CN(C2CCC2)CC12CCN(C(=O)c1ccc(F)cc1)CC2 (stereo not given) | inconclusive: 31.6 µM [inhibitor, partial curve, poor fit] | 
48 | O=C1NCCN2CC3(CCN(S(=O)(=O)c4ccccc4)CC3)CC12 (stereo not given) | inconclusive: 14.1 µM [inhibitor, partial curve, poor fit] | 
49 | Cc1noc2c(NCc3ccncc3)cc(-c3cccc(C(F)(F)F)c3)nc12 | inconclusive: 10 µM [inhibitor, partial curve] | 
50 | COCCn1ccc2c(C(=O)Nc3ccc4c(c3)C(=O)N3CCC[C@H]3C(=O)N4)cccc21 | inconclusive: 17.8 µM [inhibitor, partial curve] | 
51 | O=C(/C=C/c1ccco1)Nc1ccc(Cl)c(-c2nc3cc(Cl)ccc3o2)c1 | inconclusive: 28.2 µM [inhibitor, partial curve, poor fit] | 
52 | Cc1ccc(-c2nnc(Nc3ccc(O)cc3)c3ccccc23)cc1S(=O)(=O)NCC1CCCO1 (stereo not given) | inconclusive: 15.8 µM [inhibitor, partial curve, poor fit] | 
53 | COc1ccc(Oc2nc3c(c(=O)n(Cc4ccccc4Cl)c(=O)n3C)n2C)cc1 |  | inconclusive: -37.2% [inhibitor] [at 11.5 µM]
54 | O=c1c2ccccc2nc(/C=C/c2ccc(Br)cc2)n1CCO | inconclusive: 39.8 µM [inhibitor, single point] | 
55 | CN1C[C@@H]2CCCN3CCC[C@@H]([C@H]23)[C@H]1CCCC(=O)NCCCN1CCc2ccccc2C1 | inconclusive: 28.2 µM [inhibitor, single point] | 
56 | Cc1ccc(N2CC(NC(=O)/C=C\c3ccc4c(c3)OCO4)CC2=O)cc1 (stereo not given) | inconclusive: 4.47 µM [inhibitor, partial curve, poor fit] | 
57 | Cc1[nH]c2c(Cl)cccc2c1C | inactive | 
58 | N#Cc1ccc(COC(=O)c2ccc(N3CCOCC3)nc2)cc1 | inactive | 
59 | CCNc1c(NC(=O)Nc2ccc(OC)c(OC)c2)c(=O)oc2ccccc12 | inactive | 
60 | Cc1cc(C)c(S(=O)(=O)Nc2cccc(-c3cn4ccccc4n3)c2)c(C)c1 | inconclusive: 22.4 µM [inhibitor, partial curve, poor fit] | 
61 | O=C(Cc1c[nH]c2ccccc12)NCCc1cccc(Cl)c1 | inactive | 
62 | Cc1cc(C)c2[nH]c(C)c(CN(C)C3CCCCC3)c(=O)c2c1 | inactive | 
63 | Cc1cc(C(=O)N2CCC(O)(c3ccccc3)[C@H](N3CCCC3)C2)n[nH]1 (stereo not given in full) | inconclusive: 15.8 µM [inhibitor, single point] | 
64 | Cc1[nH]n(-c2nc3ccccc3[nH]2)c(=O)c1CCC(C)C | inconclusive: 39.8 µM [inhibitor, single point] | 
65 | COc1ccc(Nc2cc3c(cn2)CN(C)CCN3C)cc1OC | inconclusive: 56.2 µM [inhibitor, partial curve, poor fit] | 
